Data published in the supplement of paper PMC9446081.
Out of some 39,000 compounds screened, about 220 (0.56%) showed activity. The list shows a part of the results.

The compounds below were run on Escherichia coli K-12 BW25113 (assay: relative growth (OD600 normalised to plate interquartile mean) (fraction); higher = less growth inhibition, active = 0.2 or less). Settings: 50 µM; LB; incubation time: overnight (16-24 h).
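Further: static incubation at 37 °C against the wild-type strain, values averaged over two biological replicates.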

SMILES | relative growth
COc1ccc(S(=O)(=O)N(C)C[C@H]2OCCCC[C@@H](C)Oc3ccc(NC(=O)C4CCCCC4)cc3C(=O)N([C@H](C)CO)C[C@H]2C)cc1 | inactive: 1.01
C[C@H]1CCCCO[C@@H](CN(C)C(=O)NC2CCCCC2)[C@@H](C)CN([C@@H](C)CO)C(=O)c2cc(NS(=O)(=O)c3ccc(Cl)cc3)ccc2O1 | inactive: 1.02
C[C@@H]1CCCCO[C@@H](CN(C)CC2CCCCC2)[C@@H](C)CN([C@@H](C)CO)C(=O)c2cc(NC(=O)C3CCCCC3)ccc2O1 | inactive: 0.972
COc1ccc(S(=O)(=O)N[C@H]2CC[C@H](CC(=O)N3CCC(Cc4ccccc4)CC3)O[C@@H]2CO)cc1 | inactive: 0.999
C[C@H](CO)N1C[C@H](C)[C@H](CN(C)S(=O)(=O)c2ccc(F)cc2)Oc2c(NC(=O)C3CC3)cccc2C1=O | inactive: 1.01
C[C@H]1CN([C@@H](C)CO)C(=O)c2cc(NC(=O)C3CCCCC3)ccc2O[C@H]1CN(C)C(=O)Nc1ccc(C(F)(F)F)cc1 | inactive: 1.01
Cn1c(=O)c2c(NCCc3ccc(S(N)(=O)=O)cc3)ccnc2n(C)c1=O | inactive: 1.03
C[C@@H]1CCCCO[C@@H](CN(C)Cc2ccc3c(c2)OCO3)[C@H](C)CN([C@@H](C)CO)C(=O)c2cc(NS(=O)(=O)c3ccc(F)cc3)ccc2O1 | inactive: 0.99
O=C(CCCCCNC(=O)OCCCCO[C@H]1C[C@@H](c2ccc(C(F)(F)F)cc2)C=C(C(=O)N2CCN(Cc3ccccc3)CC2)O1)NO | inactive: 1
c1ccc2nc(-c3cn[nH]c3)ccc2c1 | inactive: 0.973
C[C@H](CO)N1C[C@H](C)[C@@H](CN(C)Cc2ccc(Oc3ccccc3)cc2)Oc2c(NC(=O)Nc3cccc4ccccc34)cccc2C1=O | inactive: 0.915
CO[C@H]1CN(C)C(=O)c2ccc(NC(=O)C3CCOCC3)cc2OC[C@H](C)N(Cc2cccnc2)C[C@@H]1C | inactive: 1.01
O=C1CN(S(=O)(=O)Cc2ccccc2)C[C@@H]2[C@H](c3ccc(C#Cc4ccc(F)cc4)cc3)[C@@H](CO)N12 | inactive: 1.02
C[C@@H]1CCCCO[C@H](CN(C)C(=O)Nc2ccc(F)cc2)[C@@H](C)CN([C@H](C)CO)C(=O)c2cc(NS(=O)(=O)c3ccc(F)cc3)ccc2O1 | inactive: 1.02
C[C@@]1(F)[C@H](O)[C@@H](CO)O[C@H]1n1ccc(N)nc1=O | inactive: 0.994
O=C(NN1CCCCC1)c1nn(-c2ccc(Cl)cc2Cl)c(-c2ccc(C#Cc3ccc(C(F)(F)F)cc3)s2)c1CNS(=O)(=O)N1CCCC1 | inactive: 1.03
C[C@@H]1CCCCO[C@@H](CN(C)Cc2ccccc2)[C@@H](C)CN([C@H](C)CO)C(=O)c2cc(NC(=O)Nc3cccc4ccccc34)ccc2O1 | inactive: 1.04
C[C@H](CO)N1C[C@H](C)[C@@H](CN(C)C(=O)Nc2cccc(Cl)c2Cl)OCc2ccccc2-c2ccccc2C1=O | inactive: 0.987
C[C@H]1CCCCO[C@@H](CN(C)C(=O)CCCN(C)C)[C@@H](C)CN([C@@H](C)CO)C(=O)c2cc(NC(=O)Nc3ccc(F)cc3)ccc2O1 | inactive: 0.98
C=CC[C@H](CC(=O)NCCO)C(=O)N[C@@H](COC(=O)[C@@H](CC=C)CC(=O)OC(C)(C)C)Cc1ccccc1 | inactive: 0.957
CC(C)CC#Cc1ccc2c(c1)O[C@@H](CN(C)C(=O)c1ccccn1)[C@H](C)CN([C@H](C)CO)S2(=O)=O | inactive: 1.02

SMILES | relative growth
CNC[C@@H]1Oc2c(NS(=O)(=O)c3cn(C)cn3)cccc2C(=O)N([C@H](C)CO)C[C@@H]1C | inactive: 0.973
C[C@H]1CN([C@@H](C)CO)C(=O)c2cccc(NC(=O)CCCCCC(=O)Nc3ccccc3N)c2O[C@H]1CN(C)Cc1ccc(-c2ccccc2)cc1 | inactive: 1.01
COc1ccc(C=CC(=O)c2cc(O)ccc2O)cc1 | inactive: 0.897
COc1ccc(S(=O)(=O)N(C)C[C@H]2Oc3ccc(NC(=O)CCC(F)(F)F)cc3CC(=O)N([C@@H](C)CO)C[C@H]2C)cc1 | inactive: 1.01
COCC#Cc1cnc2c(c1)C(=O)N([C@@H](C)CO)C[C@@H](C)[C@H](CN(C)C(=O)CN1CCOCC1)O2 | inactive: 1.02
C[C@H]1CCCCO[C@H](CN(C)C(=O)Nc2ccc(F)cc2)[C@@H](C)CN([C@@H](C)CO)C(=O)c2cc(NC(=O)Cc3ccccc3)ccc2O1 | inactive: 1.02
Cc1noc(C)c1NC(=O)Nc1ccc2c(c1)CC(=O)N([C@@H](C)CO)C[C@@H](C)[C@@H](CN(C)C(=O)Nc1cccc3ccccc13)O2 | inactive: 0.99
C[C@@H]1CCCCO[C@H](CN(C)S(C)(=O)=O)[C@@H](C)CN([C@@H](C)CO)C(=O)c2cc(NC(=O)Nc3ccc(C(F)(F)F)cc3)ccc2O1 | inactive: 1
COC1OC2OC3(C)CCC4C(C)CCC(C1C)C24OO3 (stereo unspecified) | inactive: 0.441
CCCN(C)C[C@@H]1OCCCC[C@@H](C)Oc2ccc(NC(=O)Nc3c(C)noc3C)cc2C(=O)N([C@H](C)CO)C[C@@H]1C | inactive: 1.01
CC(C)(C)c1cccc(CN)c1 | inactive: 0.934
COc1ccc(CN(C)C[C@H]2OCCCC[C@H](C)Oc3ccc(NC(=O)CCC(F)(F)F)cc3C(=O)N([C@@H](C)CO)C[C@H]2C)cc1 | inactive: 1.01
COc1ccc(CN(C)C[C@@H]2OCCCC[C@H](C)Oc3ccc(NC(=O)NC(C)C)cc3C(=O)N([C@@H](C)CO)C[C@@H]2C)cc1 | inactive: 0.992
C[C@@H]1CN([C@@H](C)CO)C(=O)c2cc(NS(C)(=O)=O)ccc2O[C@@H]1CN(C)C(=O)Nc1ccccc1 | inactive: 0.991
C[C@@H]1CN([C@H](C)CO)C(=O)c2cc(NS(=O)(=O)c3cn(C)cn3)ccc2O[C@H]1CN(C)Cc1ccncc1 | inactive: 0.829
CCCNC(=O)N1C[C@@H](O)COC[C@@H]2O[C@@H](CC(=O)N3CCN(C)CC3)CC[C@H]21 | inactive: 0.991
COc1ccc(NC(=O)Nc2ccc3c(c2)C(=O)N([C@H](C)CO)C[C@@H](C)[C@@H](CN(C)S(=O)(=O)c2cn(C)cn2)O3)cc1 | inactive: 0.975
COC(=O)[C@H](Cc1ccc(-n2cc(C(=O)NO)nn2)cc1)N1C[C@](C)(OC)O[C@@H](Cc2ccccc2)[C@H]1/C=C/C1CC1 | inactive: 1.01
C[C@H](CO)N1C[C@H](C)[C@@H](CN(C)C(=O)NC2CCCCC2)Oc2ccc(NC(=O)Nc3cccc4ccccc34)cc2C1=O | inactive: 1.04
CC(C)(C)OC(=O)N[C@H]1CCC(=O)NC1=O | inactive: 1.05
C[C@@H]1CN([C@H](C)CO)C(=O)c2cc(NC(=O)CCCCCC(=O)Nc3ccccc3N)ccc2O[C@H]1CN(C)S(C)(=O)=O | inactive: 1

SMILES | relative growth
Cc1ccccc1S(=O)(=O)N1C[C@H](O)COC[C@@H]2O[C@@H](CC(=O)NCCc3ccccc3)CC[C@H]21 | inactive: 0.985
C[C@H](CO)N1C[C@H](C)[C@H](CN(C)C(=O)NC2CCCCC2)OCCCC[C@H](C)Oc2ccc(NC(=O)c3ccncc3)cc2C1=O | inactive: 0.98
COCC(=O)Nc1ccc2c(c1)C(=O)N(C)[C@@H]1CC[C@H](CC(=O)NCc3ccc(OC)cc3)O[C@H]1CO2 | inactive: 0.999
Cl.Cl.NCCCCN | inactive: 0.999
COc1ccc(NC(=O)Nc2ccc3c(c2)C(=O)N([C@@H](C)CO)C[C@@H](C)[C@H](CN(C)CC2CCCCC2)O3)cc1 | inactive: 0.998
C[C@H]1CN([C@@H](C)CO)C(=O)CCCn2nncc2CO[C@H]1CN(C)S(=O)(=O)c1cccc(C#N)c1 | inactive: 0.974
COc1ccc(S(=O)(=O)Nc2ccc3c(c2)CC(=O)N([C@H](C)CO)C[C@H](C)[C@H](CN(C)Cc2ccc(-c4ccccc4)cc2)O3)cc1 | inactive: 1.01
Cc1ccccc1S(=O)(=O)N1C[C@H](O)COC[C@H]2O[C@H](CC(=O)N3CCC(Cc4ccccc4)CC3)CC[C@@H]21 | inactive: 0.975
C[C@H](CO)N1C[C@H](C)[C@H](CN(C)S(=O)(=O)c2cn(C)cn2)Oc2c(NC(=O)C3CCOCC3)cccc2C1=O | inactive: 0.874
C[C@H]1CN([C@@H](C)CO)C(=O)Cc2cc(NC(=O)CCC(F)(F)F)ccc2O[C@H]1CN(C)Cc1ccc(C(=O)Nc2ccccc2N)cc1 | inactive: 0.991
C[C@H]1CN([C@@H](C)CO)C(=O)Cc2cc(NC(=O)Cn3cnnn3)ccc2O[C@@H]1CN(C)Cc1ccc(-c2ccccc2)cc1 | inactive: 0.986
Cc1cc(C(=O)Nc2cccc3c2O[C@@H](CN(C)C(=O)NC2CCCCC2)[C@H](C)CN([C@@H](C)CO)C3=O)n(C)n1 | inactive: 1.01
COc1cc(OC)nc(N)n1 | inactive: 1
C[C@@H]1CCCCO[C@@H](CN(C)CC2CCCCC2)[C@@H](C)CN([C@H](C)CO)C(=O)c2cc(N(C)C)ccc2O1 | inactive: 1
S=c1[nH]cc(-c2ccccc2)[nH]1 | inactive: 0.927
C[C@H](CO)N1C[C@H](C)[C@@H](CN(C)S(=O)(=O)c2ccc(Cl)cc2)Oc2ccc(NC(=O)c3ccncc3)cc2CC1=O | inactive: 0.977
C[C@H](CO)N1C[C@H](C)[C@H](CN(C)S(=O)(=O)c2ccc(Cl)cc2)Oc2ccc(NC(=O)Cn3cnnn3)cc2CC1=O | inactive: 1.04
Cc1ccc(S(=O)(=O)N(C)C[C@H]2Oc3ccc(NS(=O)(=O)c4ccc(F)cc4)cc3CC(=O)N([C@@H](C)CO)C[C@@H]2C)cc1 | inactive: 1.02
C[C@H](CO)N1C[C@H](C)[C@@H](CN(C)C(=O)Nc2ccc(C(F)(F)F)cc2)Oc2ccc(NC(=O)Nc3ccc(C(F)(F)F)cc3)cc2C1=O | inactive: 1
